PubChem BioAssay (Tox21)
“And” between values parts separate entries of the source, which are not always exact repeats. Equal entries are not always repeated. This list was built around the results that the source calls inconclusive (neither active nor inactive); the mix of calls is not that of the screen. No potency is given beside an inconclusive call; the fits are too rough. The source holds several records for some structures; these can differ, active in one and inactive in another. The source made the active and inactive calls. Calls follow the shape of the dose curve; as a rule, active = well fitted curve in the direction sought with a large enough effect in the repeat runs; inconclusive = weak or mixed curves; inactive = no such curve, though single readings can be large; an effect the other way counts as inactive or inconclusive.

Test: qHTS assay to identify small molecule antagonists of the estrogen related receptor (ERR) signaling pathway from Tox21 library (AID 1224848)
Conditions: ERR reporter cell line, luciferase antagonist mode, 18 h; series mostly up to 92.4 µM
Method in brief: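 Screening used an ERR reporter line supplied by NTP, exposed for 18 h at 37 C to library compounds delivered in DMSO. Signal was luciferase luminescence developed with ONE-Glo at room temperature for 30 min.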
Also: nearly all actives have a fitted effect of over 50% in size.
Potency is read from the fitted curve at half-maximal effect; tags tell the direction and shape of the fitted curve.

Row | Compound | Potency
1 | CC(C)c1cccc(C(C)C)c1O | inconclusive [inhibitor, full curve]
2 | C=CCN1C[C@H](C)N([C@H](c2ccc(C(=O)N(CC)CC)cc2)c2cccc(OC)c2)C[C@H]1C | inconclusive [inhibitor]
3 | CCCCCCCCCCCCCCn1cc[n+](C)c1 | inconclusive [inhibitor]
4 | CCCCCCCCCCCCCCCCCCn1cc[n+](C)c1 | active: 5.42 µM
5 | Sc1ccccc1Cl | inactive
6 | Cc1ccc(OP(=O)(Oc2ccccc2)Oc2ccccc2)cc1 | inconclusive [inhibitor, partial curve]

Test: qHTS RealTime-Glo MT Cell Viability Assay in HepG2 cells - 24 hour (AID 1224867)
Conditions: RealTime-Glo luminescence; series mostly up to 76.8 µM
Method in brief: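 Cells + NanoLuc/prosubstrate dispensed (600 cells/well) → 5 h at 37 C/5% CO2 → compounds in DMSO transferred → 40 h incubation at 37 C, luminescence read at 0, 8, 16, 24, 32, 40 h.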

Row | Compound | Potency
7 | CC(C)c1cccc(C(C)C)c1O | inconclusive [falling, partial curve, poor fit]
8 | C=CCC1=C(C)[C@@H](OC(=O)[C@@H]2[C@@H](C=C(C)C)C2(C)C)CC1=O | inconclusive [falling, partial curve, poor fit]
9 | CCCCCCCCCCCCCCn1cc[n+](C)c1 | active: 24.6 µM and active: 48.5 µM
10 | CCCCCCCCCCCCCCCCCCn1cc[n+](C)c1 | active: 34.5 µM
11 | CCCC[n+]1cccc(C)c1 | inconclusive [falling, partial curve, poor fit]
